Measured values reported in the supplement of paper PMC8728848.
The list shows a part of the results.

Tests used:
Assay in all cases: glycan array binding signal (z-score within array); higher = stronger binding
Conditions in all cases: glycan notation: IUPAC condensed, linker removed
Neu5Ac(a2-8)Neu5Ac = molecular target: Neu5Ac(a2-8)Neu5Ac
Method in brief: (§1)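 The Consortium for Functional Glycomics database supplied 3228 glycan arrays, of which those lacking an available protein sequence were dropped. The binding signal, a within-array Z-score, was averaged across arrays of the same protein sequence and across linkers. Negative scores can be read as non-binding.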

[1] = molecular target: Neu5Ac(a2-8)Neu5Ac(a2-3)Gal(b1-3)GalNAc(b1-4)[Neu5Ac(a2-3)]Gal(b1-4)Glc
Method in brief: as §1

[2] = molecular target: Neu5Ac(a2-8)Neu5Ac(a2-3)Gal(b1-3)GalNAc(b1-4)[Neu5Ac(a2-8)Neu5Ac(a2-3)]Gal(b1-4)Glc
Method in brief: as §1

[3] = molecular target: Neu5Ac(a2-8)Neu5Ac(a2-3)Gal(b1-4)Glc
Method in brief: as §1

[4] = molecular target: Neu5Ac(a2-8)Neu5Ac(a2-3)Gal(b1-4)GlcNAc
Method in brief: as §1

[5] = molecular target: Neu5Ac(a2-8)Neu5Ac(a2-3)[Gal(b1-3)GalNAc(b1-4)]Gal(b1-4)Glc
Method in brief: as §1

[6] = molecular target: Neu5Ac(a2-8)Neu5Ac(a2-3)[GalNAc(b1-4)]Gal(b1-4)Glc
Method in brief: as §1

[7] = molecular target: Neu5Ac(a2-8)Neu5Ac(a2-8)Neu5Ac
Method in brief: as §1

[8] = molecular target: Neu5Ac(a2-8)Neu5Ac(a2-8)Neu5Ac(a2-3)Gal(b1-4)Glc
Method in brief: as §1

[9] = molecular target: Neu5Ac(a2-8)Neu5Ac(a2-8)Neu5Ac(a2-3)[Gal(b1-3)GalNAc(b1-4)]Gal(b1-4)Glc
Method in brief: as §1

[10] = molecular target: Neu5Ac(a2-8)Neu5Ac(a2-8)Neu5Ac(a2-3)[GalNAc(b1-4)]Gal(b1-4)Glc
Method in brief: as §1

[11] = molecular target: Neu5Ac(a2-8)Neu5Ac(a2-8)Neu5Ac(a2-8)Neu5Ac(a2-3)[GalNAc(b1-4)]Gal(b1-4)Glc
Method in brief: as §1

[12] = molecular target: Neu5Ac(a2-8)Neu5Gc(a2-3)Gal(b1-4)GlcNAc
Method in brief: as §1

[13] = molecular target: Neu5Ac(b2-6)Gal(b1-4)GlcNAc
Method in brief: as §1

Neu5Ac(b2-6)GalNAc = molecular target: Neu5Ac(b2-6)GalNAc
Method in brief: as §1

[14] = molecular target: Neu5Ac9Ac(a2-3)Gal(b1-3)GlcNAc
Method in brief: as §1

[15] = molecular target: Neu5Ac9Ac(a2-3)Gal(b1-4)GlcNAc
Method in brief: as §1

[16] = molecular target: Neu5Ac9Ac(a2-6)Gal(b1-4)GlcNAc
Method in brief: as §1

[17] = molecular target: Neu5Gc(a2-3)Gal(b1-3)GlcNAc
Method in brief: as §1

[18] = molecular target: Neu5Gc(a2-3)Gal(b1-3)[Fuc(a1-4)]GlcNAc
Method in brief: as §1

Neu5Gc(a2-3)Gal(b1-4)Glc = molecular target: Neu5Gc(a2-3)Gal(b1-4)Glc
Method in brief: as §1

[19] = molecular target: Neu5Gc(a2-3)Gal(b1-4)GlcNAc
Method in brief: as §1

[20] = molecular target: Neu5Gc(a2-3)Gal(b1-4)GlcNAc(b1-3)Gal(b1-4)GlcNAc(b1-2)Man(a1-3)[Neu5Gc(a2-3)Gal(b1-4)GlcNAc(b1-3)Gal(b1-4)GlcNAc(b1-2)Man(a1-6)]Man(b1-4)GlcNAc(b1-4)GlcNAc
Method in brief: as §1

[21] = molecular target: Neu5Gc(a2-3)Gal(b1-4)[Fuc(a1-3)]GlcNAc
Method in brief: as §1

[22] = molecular target: Neu5Gc(a2-6)Gal(b1-4)GlcNAc
Method in brief: as §1

Neu5Gc(a2-6)GalNAc = molecular target: Neu5Gc(a2-6)GalNAc
Method in brief: as §1

[23] = molecular target: Neu5Gc(a2-8)Neu5Ac(a2-3)Gal(b1-4)GlcNAc
Method in brief: as §1

[24] = molecular target: Neu5Gc(a2-8)Neu5Gc(a2-3)Gal(b1-4)GlcNAc
Method in brief: as §1

[25] = molecular target: Neu5Gc(a2-8)Neu5Gc(a2-3)Gal(b1-4)GlcNAc(b1-3)Gal(b1-4)GlcNAc
Method in brief: as §1

[26] = molecular target: Neu5Gc(a2-8)Neu5Gc(a2-6)Gal(b1-4)GlcNAc
Method in brief: as §1

[27] = molecular target: Neu5Gc(b2-6)Gal(b1-4)GlcNAc
Method in brief: as §1

B1: Arath Fbox LD (Arabidopsis thaliana) (protein)
chain: EFSVWLEKASGKRCLMLSAMNLSIIWGDNPQYWQWIPIPESRFEKVAKLRDVCWFEIRGRTNTRVLSPRTRYSAYIVFKGVDKCYGFQNVAIEAAVGVVGQEPSRRLICFSEAIRRGRRNVVKPKQREDGWMEIELGEFFNDGGIMDNDEIEMSALETKQLNRKCGLIIQGIEIRPAKILAAASFLEQKLISEEDLNSAVDHHHHHH
In the case of B1, the “glycan array binding signal (z-score)” value (Neu5Ac(a2-8)Neu5Ac) is reported as -0.05, the “glycan array binding signal (z-score)” value [1] is reported as 0.001 and the “glycan array binding signal (z-score)” value [2] is reported as 0.099. The “glycan array binding signal (z-score)” value [3] was -0.516, the “glycan array binding signal (z-score)” value [4] was -0.254 and the “glycan array binding signal (z-score)” value [5] was 0.058. The “glycan array binding signal (z-score)” value [6] was 0.575, the “glycan array binding signal (z-score)” value [7] was 0.248 and the “glycan array binding signal (z-score)” value [8] was -0.015. The “glycan array binding signal (z-score)” value [9] was -0.484, the “glycan array binding signal (z-score)” value [10] was -0.272 and the “glycan array binding signal (z-score)” value [11] was 0.508. For the same binder, the “glycan array binding signal (z-score)” value [12] was -0.634, the “glycan array binding signal (z-score)” value [13] was -0.521 and the “glycan array binding signal (z-score)” value (Neu5Ac(b2-6)GalNAc) was -0.483. The “glycan array binding signal (z-score)” value [14] was 3.71, the “glycan array binding signal (z-score)” value [15] was -0.498 and the “glycan array binding signal (z-score)” value [16] was -0.428. The “glycan array binding signal (z-score)” value [17] was -0.256, the “glycan array binding signal (z-score)” value [18] was -0.502 and the “glycan array binding signal (z-score)” value (Neu5Gc(a2-3)Gal(b1-4)Glc) was 0.057. The “glycan array binding signal (z-score)” value [19] was -0.477, the “glycan array binding signal (z-score)” value [20] was -0.554 and the “glycan array binding signal (z-score)” value [21] was -0.373. For the same binder, the “glycan array binding signal (z-score)” value [22] was -0.381, the “glycan array binding signal (z-score)” value (Neu5Gc(a2-6)GalNAc) was -0.28 and the “glycan array binding signal (z-score)” value [23] was -0.05. The “glycan array binding signal (z-score)” value [24] was -0.468, the “glycan array binding signal (z-score)” value [25] was -0.404 and the “glycan array binding signal (z-score)” value [26] was -0.133. The “glycan array binding signal (z-score)” value [27] was -0.261.
